{"source": "PubChem BioAssay AID902", "about": "(National Center for Advancing Translational Sciences (NCATS), 2007)", "note": "The campaign covered roughly 130,000 compounds. About 1,900 (1.5%) were called active. Inconclusive results, whose numbers are uncertain, are shown with a selection of clear calls. Calls follow the shape of the dose curve; as a rule, active = well fitted cell-killing curve with a large enough effect; inconclusive = small, poorly fitted or top-dose-only effect; inactive = no such curve, though single readings can be large or run the other way. Potencies of inconclusive entries are doubtful fits and often do not repeat. % is scaled to controls: 0 for no effect and ±100 for the full control effect; potency is read from the fitted curve at half-maximal effect; tags tell the direction and shape of the fitted curve."}
{"test": "qHTS Screen for Compounds that Selectively Target Cancer Cells with p53 Mutations: Cytotoxicity of p53ts Cells at the Nonpermissive Temperature; also: nearly all actives have a fitted effect of over 55% in size", "details": "H1299-p53A138V viability at 39C, ATP luminescence, 24 h; activity change, negative = cell killing: at 46.1 µM (top of the series)"}
{"smiles": "COc1ccccc1-c1nnc(SCCOc2ccccc2C)o1", "activity change, negative = cell killing": "inactive: 6.33%"}
{"smiles": "CCN(CC)S(=O)(=O)c1cc(-c2nnc(Nc3ccc(OC)c(C(N)=O)c3)c3ccccc23)ccc1C", "Potency": "inconclusive: 10 µM [cytotoxic, partial curve]"}
{"smiles": "Cc1ccc(NC(=O)c2cccc(N3CCCS3(=O)=O)c2)cc1", "Potency": "inconclusive: 2 µM [cytotoxic, partial curve]"}
{"smiles": "CCc1cccc(NC(=O)CCc2c(C)nc3c(c2C)c(=O)n(C)c(=O)n3C)c1", "Potency": "inconclusive: 12.6 µM [cytotoxic, single point]"}
{"smiles": "O=C(CCn1c(=O)c2cccn2c2ccc(F)cc21)NCCc1ccccc1", "Potency": "inconclusive: 3.55 µM [cytotoxic, partial curve]"}
{"smiles": "O=C(CSc1ncnc2sc3c(c12)CCCCC3)NCc1ccco1", "activity change, negative = cell killing": "inactive: -4.98%"}
{"smiles": "COc1cccc(-n2cc(C(=O)NCc3ccccc3OC)c3ccccc3c2=O)c1", "Potency": "inconclusive: 4.47 µM [cytotoxic, single point]"}
{"smiles": "CN1CCN([C@@H]2Cc3ccccc3Sc3ccc(Cl)cc32)CC1", "Potency": "active: 15.8 µM"}
{"smiles": "CCc1ccc(NC(=O)c2sc3nc(C)c(Cl)c(C)c3c2N)cc1", "Potency": "inconclusive: 12.6 µM [cytotoxic, single point]"}
{"smiles": "COc1ccc2nc(-c3ccc(N)cc3)[nH]c2c1", "Potency": "inconclusive: 15.8 µM [cytotoxic, partial curve]"}
{"smiles": "Cc1c(Cl)cccc1NC(=O)C(C)n1c(=O)cc(-c2ccccc2)c2c(C)nn(C)c21", "note": "(stereo not drawn)", "Potency": "inconclusive: 0.0316 µM [cytotoxic, full curve, poor fit]"}
{"smiles": "CC(C)(C)c1ccc(OCCn2ccccc2=O)cc1", "Potency": "inconclusive: 6.31 µM [cytotoxic, full curve, poor fit]"}
{"smiles": "O=C(Nc1ccc(Cl)cc1C(=O)Nc1ccc(Br)cn1)c1ccco1", "activity change, negative = cell killing": "inactive: 1.5%"}
{"smiles": "Cc1ccc(Oc2c(C(F)(F)F)oc3cc(OCC(=O)NC4CCCCC4)ccc3c2=O)cc1", "Potency": "inconclusive: 20 µM [cytotoxic, single point]"}
{"smiles": "CC(=O)Nc1cc(C(=O)NCc2ccc(C)cc2)ccc1Sc1ccc(C)cc1", "Potency": "inconclusive: 0.005 µM [cytotoxic, full curve, poor fit]"}
{"smiles": "O=C(Nc1nnc(-c2ccco2)s1)c1ccccc1", "Potency": "inconclusive: 12.6 µM [cytotoxic, single point]"}
{"smiles": "CCc1ccc(-c2nc(CN3CCCC(C(=O)N4CCN(c5cc(Cl)ccc5C)CC4)C3)c(C)o2)cc1", "note": "(stereo not drawn)", "Potency": "inconclusive: 12.6 µM [cytotoxic, single point]"}
{"smiles": "CC(CNC(=O)Cn1ccc2cc(S(=O)(=O)N3CCCCCC3)ccc21)c1ccccc1", "note": "(stereo not drawn)", "Potency": "inconclusive: 20 µM [cytotoxic, partial curve, poor fit]"}
{"smiles": "COc1ccc(Cl)cc1NC(=O)CN(C)S(=O)(=O)c1ccc2c(c1)CCCN2C(C)=O", "Potency": "inconclusive: 31.6 µM [cytotoxic, single point]"}
{"smiles": "O=C(CSc1nnc(Cc2cccs2)n1-c1ccccc1)NC1CCCCC1", "Potency": "inconclusive: 12.6 µM [cytotoxic, single point]"}
{"smiles": "CCOC(=O)c1c(Nc2cccc(O)c2)nnc(-c2ccccc2)c1-c1ccccc1", "Potency": "inconclusive: 31.6 µM [cytotoxic, single point]"}
{"smiles": "O=C(CSc1nc2ccccc2nc1Cc1ccc(F)cc1)Nc1ccc2c(c1)OCO2", "activity change, negative = cell killing": "inactive: -21.4%"}
{"smiles": "COC(=O)Cc1ccc(NC(=O)c2ccc(Br)o2)cc1", "Potency": "inconclusive: 12.6 µM [cytotoxic, single point]"}
{"smiles": "O=C(COc1ncnc2ccccc12)c1ccc2c(c1)OCCO2", "Potency": "inconclusive: 12.6 µM [cytotoxic, partial curve]"}
{"smiles": "CSc1cccc(NS(=O)(=O)c2ccc3[nH]cc(C(=O)N4CCCC4)c(=O)c3c2)c1", "activity change, negative = cell killing": "inactive: 24.1%"}
{"smiles": "O=C(c1ccccc1)[C@@H]1O[C@H]1c1ccc(-c2ccccc2)cc1", "Potency": "inconclusive: 10 µM [cytotoxic, partial curve]"}
{"smiles": "Cc1cc(Oc2nc3c(C)cccn3c(=O)c2/C=C(\\C#N)S(=O)(=O)c2ccccc2)ccc1Cl", "activity change, negative = cell killing": "inactive: 4.32%"}
{"smiles": "O=C(COc1ccc2c(c1)OCO2)Nc1ccc2c(c1)oc1ccccc12", "Potency": "inconclusive: 31.6 µM [cytotoxic, partial curve]"}
{"smiles": "COc1cccc(CSc2nc3ccccc3[nH]2)c1", "Potency": "inconclusive: 12.6 µM [cytotoxic, single point]"}
{"smiles": "NNC(=O)COc1cccc2cccnc12", "activity change, negative = cell killing": "inactive: 2.1%"}
{"smiles": "O=C(Nc1cccc(Cl)c1Cl)c1cc(S(=O)(=O)N2CCC3(CC2)OCCO3)ccc1F", "Potency": "inconclusive: 20 µM [cytotoxic, partial curve, poor fit]"}
{"smiles": "COc1cccc(Cn2c(=O)c(C)nc3cnc(N4CCN(C)CC4)nc32)c1", "activity change, negative = cell killing": "inactive: -12.1%"}
{"smiles": "Cc1ccc(C)c(N2CCN(C(=O)c3cc4c(=O)n(Cc5cccnc5)ccc4nc3C)CC2)c1", "activity change, negative = cell killing": "inactive: -12.4%"}
{"smiles": "Cc1ccc(NC(=O)c2cc3c(Cl)nc4ccc(C)cc4c3s2)c(Cl)c1", "activity change, negative = cell killing": "inconclusive: -35.8% [cytotoxic]"}
{"smiles": "CCc1ccccc1NC(=O)Cc1ccc(-n2c(C)nc3cccnc32)cc1", "activity change, negative = cell killing": "inactive: 4.39%"}
{"smiles": "COc1cccc(-c2ccc3c(N)c(C(=O)Nc4ccc(Cl)cc4F)sc3n2)c1", "Potency": "inconclusive: 25.1 µM [cytotoxic, single point]"}
{"smiles": "Cc1cccc(NC(=O)c2sc(C)nc2C)c1", "Potency": "inconclusive: 17.8 µM [cytotoxic, single point]"}
{"smiles": "COc1cc(-c2noc(CSc3nc(-c4ccccc4)cc(=O)[nH]3)n2)cc(OC)c1OC", "activity change, negative = cell killing": "inactive: -4.11%"}
{"smiles": "CCOc1ccc2nc(-c3ccccc3)[nH]c2c1", "Potency": "active: 5.01 µM"}
{"smiles": "Cc1ccc(-n2nc(C)c3c(C)cc(=O)n(CC(=O)Nc4ccc(Br)cc4F)c32)cc1", "activity change, negative = cell killing": "inactive: -22.6%"}
{"smiles": "COc1ccc(-n2c(C)cc(/C=N/Nc3nnc(C)n3N)c2C)cc1", "Potency": "active: 10 µM"}
{"smiles": "CCOC(=O)CSc1nc2ccc(NC(=O)c3ccc(F)cc3)cc2s1", "Potency": "inconclusive: 0.199 µM [cytotoxic, full curve, poor fit]"}
{"smiles": "Cc1ccc(Nc2nnc(-c3ccc(C)c(S(=O)(=O)N4CCN(C)CC4)c3)c3ccccc23)c(C)c1", "Potency": "inconclusive: 20 µM [cytotoxic, single point]"}
{"smiles": "CCOc1ccc2nc(N3CCC(C(=O)N4CCN(c5ccccn5)CC4)CC3)sc2c1", "Potency": "inconclusive: 31.6 µM [cytotoxic, single point]"}
{"smiles": "Cn1c(C(=O)NCCCN2CCN(c3ccccc3F)CC2)cc2c(=O)n(C)c3ccccc3c21", "Potency": "inconclusive: 15.8 µM [cytotoxic, single point]"}
{"smiles": "Cc1sc2ncnc(SCc3ccco3)c2c1C", "activity change, negative = cell killing": "inactive: 4.6%"}
{"smiles": "O=c1c2oc3ccccc3c2n(Cc2cccc(F)c2)c(=O)n1Cc1ccco1", "activity change, negative = cell killing": "inactive: -8.93%"}
{"smiles": "FC(F)(F)c1ccc(C2[C@H]3CN(Cc4cccnc4)[C@H](c4ccccc4)C34CC2(c2cccnc2)C4)cc1", "note": "(stereo partly drawn)", "Potency": "inconclusive: 20 µM [cytotoxic, single point]"}
{"smiles": "Cc1cc(C(=O)CSc2nc3ccc(Cl)cc3[nH]2)c(C)n1C", "activity change, negative = cell killing": "inactive: -29.7%"}
{"smiles": "CCOC(=O)C1CCN(S(=O)(=O)c2cc(-c3onc(C)c3C)ccc2OC)CC1", "activity change, negative = cell killing": "inactive: -25.3%"}
{"smiles": "C[C@@H](C(=O)NCc1nc2ccccc2[nH]1)[C@@H]1C[C@@]1(C)[C@@H](NC(=O)OCc1ccccc1)c1ccccc1", "activity change, negative = cell killing": "inactive: -19.4%"}
{"smiles": "Cc1ccc2nc(-c3ccc(Cl)c(NC(=O)c4cccnc4)c3)oc2c1", "Potency": "inconclusive: 2.51 µM [cytotoxic, single point]"}
{"smiles": "CCOc1ccc(NC(=O)CSc2nccn2-c2cccc(C)c2C)cc1", "Potency": "inconclusive: 6.31 µM [cytotoxic, partial curve]"}
{"smiles": "Cc1cccn2c(Nc3ccccc3)c(-c3ccc(N4CCOCC4)cc3)nc12", "Potency": "inconclusive: 12.6 µM [cytotoxic, single point]"}
{"smiles": "CC(C)c1ccc(OC(=O)c2cc(-c3ccc4c(c3)OCCO4)on2)cc1", "Potency": "active: 20 µM"}
{"smiles": "COc1ccc(CCNC(=O)CSc2ncc3c(n2)-c2cc(Cl)ccc2N(Cc2ccccc2)S3(=O)=O)cc1OC", "Potency": "inconclusive: 25.1 µM [cytotoxic, single point]"}
{"smiles": "Cc1ccc(CNC(=O)c2nc(SCc3ccc(C)cc3)ncc2Cl)cc1", "Potency": "inconclusive: 12.6 µM [cytotoxic, partial curve]"}
{"smiles": "COc1cccc(N2CCN(C(=O)c3cccc(NC(=O)c4nsc5ccccc45)c3)CC2)c1", "Potency": "inconclusive: 3.98 µM [cytotoxic, full curve, poor fit]"}
{"smiles": "COc1cc(/C=C\\C(=O)N2CCC=CC2=O)cc(OC)c1OC", "Potency": "active: 6.31 µM"}
{"smiles": "O=C(C1CC1)N1CCN(c2nc3ccccc3s2)CC1", "Potency": "inconclusive: 10 µM [cytotoxic, partial curve]"}
{"smiles": "CCOc1ccc(CCNC(=O)c2ccc(C)c(-n3cnc4cccnc43)c2)cc1", "Potency": "inconclusive: 0.0316 µM [cytotoxic, full curve, poor fit]"}
{"smiles": "Cc1ccc(C(C)C)c(OCc2ccc(C(=O)Nc3ccc(S(N)(=O)=O)cc3C)o2)c1", "Potency": "inconclusive: 20 µM [cytotoxic, single point]"}
{"smiles": "Cc1cccc(N(C)C(=O)CS(=O)(=O)c2cccc3nsnc23)c1", "Potency": "inconclusive: 3.16 µM [cytotoxic, single point]"}
{"smiles": "CCOC(=O)c1ccc2nc(NC(=O)c3ccco3)sc2c1", "Potency": "inconclusive: 12.6 µM [cytotoxic, partial curve]"}
{"smiles": "COc1ccc(C(=O)NCc2nnc(SCC(=O)Nc3ccc(C)cc3)n2-c2ccccc2)cc1", "activity change, negative = cell killing": "inactive: -9.52%"}
{"smiles": "CCOc1ccc(CNC(=O)CCc2c(C)nn(-c3ccc(N4CCOCC4)nn3)c2C)cc1", "activity change, negative = cell killing": "inactive: -18.7%"}
{"smiles": "O=C(OCc1ccco1)c1ccc2c(c1)N(Cc1ccc([N+](=O)[O-])cc1)C(=O)c1ccccc1S2", "activity change, negative = cell killing": "inactive: -4.46%"}
{"smiles": "CO[C@@H]1COC(=O)C/C=C\\[C@@H](C)[C@@H]2C=C[C@H](O)[C@@H](COC(=O)CCC[C@H]1C)O2", "activity change, negative = cell killing": "inactive: 6.11% [at 9.22 µM]"}
